B1: Recombinant full-length TRK-fused gene protein (TFG), WT sequence (natural protein, human)
chain: [about 200 residues left out]ASSSSAAHPPGVQPQQPPYTGAQTQAGQIEGQMYQQYQQQAGYGAQQPQAPPQQPQQYGIQYSASYSQQTGPQQPQQFQGYGQQPTSQAPAPAFSGQPQQLPAQPPQQYQASNYPAQTYTAQTSQPTNYTVAPASQPGMAPSQPGAYQPRPGFTSLPGSTMTPPPSGPNPYARNRPPFGQGYTQPGPGYR
notes: TRK-fused gene protein (TFG), human, full length; pet28b+ vector with a His tag, no mCherry; also called full-length TFG
B2: Recombinant full-length TFG, G269V (natural protein)
chain: not shown
notes: TRK-fused gene protein (TFG), human, full length, with the documented pathogenic mutation G269V; pet28b+ vector with a His tag, no mCherry; also called full-length TFG mutant G269V
B3: Recombinant full-length TFG, P285L (natural protein)
chain: not shown
notes: TRK-fused gene protein (TFG), human, full length, with the documented pathogenic mutation P285L; pet28b+ vector with a His tag, no mCherry; also called full-length TFG mutant P285L

Target: the molecule itself
Experiment: amyloid fibre formation (thioflavin T aggregation assay); self-association into fibres; full-length TFG, same method as for the LCD but in 20 mM Tris (pH 8), 150 mM NaCl instead of PBS

| Protein | binding result |
| --- | --- |
| B1 | binds |
| B2 | binds |
| B3 | binds |

Reference: paper PMC9108986, “Bioinformatic identification of previously unrecognized amyloidogenic proteins” (The Journal of Biological Chemistry, 2022)
